# Assay results: PubChem BioAssay (NCATS)
# The inconclusive results got no clear call from the source; some entries with a clear call stand among them for comparison. For some of these results: Potencies beside an inconclusive call are fits to weak or partial responses and may not hold up. Activity calls are given as the source filed them. Calls come from the whole dose curve; as a rule, active = well fitted curve in the direction sought with a large enough effect; inconclusive = small, poorly fitted or top-dose-only effect, or another doubt; inactive = no such curve, though single readings can be large; an effect the other way counts as inactive or inconclusive.
# What was measured:
# [1] = qHTS Assay for Identifying Gametocytocidal Compounds (AID 743244); note: potency is the fitted concentration of half-maximal effect; conditions: P. falciparum 3D7 stage III-V gametocytes, alamarBlue, 72 h; max response: active compounds read low
# In short: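 Compounds are pinned into medium, gametocytes (stage III–V, 3D7, 20,000 cells/well) added, and plates held 72 h at 37 °C in 5% CO2. AlamarBlue follows for 24 h before fluorescence reading.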
# [2] = Quantitative High-Throughput drug screen in 47 multiple myeloma cell lines against the NCATS MIPE library collection: AMO1_DSMZ cell viability assay (AID 1918927; note: potency is the fitted concentration of half-maximal effect; nearly all actives have a fitted effect of over 30% in size)
# In short: (§1)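 Steps: seed 500 cells per well; pin-transfer MIPE 4.0 library; incubate 48 h at 37C, 5% CO2, humidified; add CellTiter-Glo, 5 min room temperature; read luminescence.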
# [3] = Quantitative High-Throughput drug screen in 47 multiple myeloma cell lines against the NCATS MIPE library collection: Karpas620_DSMZ cell viability assay (AID 1918959); note: potency is the fitted concentration of half-maximal effect; nearly all actives have a fitted effect of over 30% in size
# In short: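 Approved and investigational drugs from MIPE 4.0 were added by pin tool to 500 cells per well. After 48 hours at 37C, ATP-based CellTiter-Glo luminescence indicated remaining viability.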
# [4] = Quantitative High-Throughput drug screen in 47 multiple myeloma cell lines against the NCATS MIPE library collection: RPMI8226_ATCC cell viability assay (AID 1919871); note: potency is the fitted concentration of half-maximal effect; nearly all actives have a fitted effect of over 30% in size
# In short: (§2)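 ATP-based luminescence (CellTiter-Glo, 5 min RT incubation) quantified surviving cells following two days' treatment with MIPE 4.0 agents at 37 °C, 5% CO2.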
# [5] = qHTS assay to identify inhibitors of the type 1 interferon - major histocompatibility complex class I in skeletal muscle: Counter screen cell viability and HiBit confirmation (AID 1347412); conditions: iHSKM muscle cells + IFN-b, HiBiT or CellTiter-Glo, 24 h; note: potency is the fitted concentration of half-maximal effect; nearly all actives have a fitted effect of over 60% in size
# In short: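 HLA-B*08:01–HiBiT knock-in immortalized human myoblasts (C25cl48) stimulated with 4.0 ng/ml human IFN-beta and dosed with compound in a 12-point 1:3 titration (top final 46 uM). After 24 hrs at 37 C, HiBiT lytic luminescence or CellTiter Glo ATP read out.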
# [6] = qHTS of pediatric cancer cell lines to identify multiple opportunities for drug repurposing: Primary screen for SK-N-MC cells (AID 1347093); conditions: SK-N-MC viability, CellTiter-Glo luminescence, 48 h; series mostly up to 46 µM; note: potency is the fitted concentration of half-maximal effect
# In short: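 Metabolically active cells were quantified by ATP-dependent luminescence (CellTiter-Glo, 15 min at room temperature) following 48 h treatment. Cells had been plated at 500-1,000 per well and settled for 5 h beforehand.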
# [7] = Quantitative High-Throughput drug screen in 47 multiple myeloma cell lines against the NCATS MIPE library collection: EJM_DSMZ cell viability assay (AID 1918926; note: potency is the fitted concentration of half-maximal effect; nearly all actives have a fitted effect of over 30% in size)
# In short: as §1
# [8] = Quantitative High-Throughput drug screen in 47 multiple myeloma cell lines against the NCATS MIPE library collection: KMS12BM_JCRB cell viability assay (AID 1918971); note: potency is the fitted concentration of half-maximal effect; nearly all actives have a fitted effect of over 35% in size
# In short: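 Luminescent ATP measurement with CellTiter-Glo gives viability, scaled between DMSO-only wells (100%) and media-only wells (0%). Cells, 500 per well, faced library compounds for 48 hours at 37C.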
# [9] = Quantitative High-Throughput drug screen in 47 multiple myeloma cell lines against the NCATS MIPE library collection: U266_ATCC cell viability assay (AID 1919864); note: nearly all actives have a fitted effect of over 35% in size; note: potency is the fitted concentration of half-maximal effect
# In short: as §2
# [10] = Quantitative High-Throughput drug screen in 47 multiple myeloma cell lines against the NCATS MIPE library collection: PCM6_Riken cell viability assay (AID 1919870)
# In short: as §2
# [11] = Quantitative High-Throughput drug screen in 47 multiple myeloma cell lines against the NCATS MIPE library collection: KMS11_JCRBsus cell viability assay (AID 1919873); note: potency is the fitted concentration of half-maximal effect; nearly all actives have a fitted effect of over 50% in size
# In short: as §2
# [12] = Primary qHTS for small molecule stabilizers of the endoplasmic reticulum resident proteome: Secreted ER Calcium Modulated Protein (SERCaMP) assay (AID 1508630); conditions: SH-SY5Y GLuc-SERCaMP (Gaussia luciferase released on ER calcium loss) secretion, thapsigargin, luminescence; series mostly up to 38.4 µM
# In short: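 The SH-SY5Y reporter protocol was run at 3 concentrations up to 38.3 uM (primary) or 11 concentrations (follow-up): 16 h compound, 100 nM thapsigargin for 4 h, then extracellular luciferase luminescence.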
# [13] = qHTS of pediatric cancer cell lines to identify multiple opportunities for drug repurposing: Primary screen for RD cells (AID 1347104); note: potency is the fitted concentration of half-maximal effect; nearly all actives have a fitted effect of over 55% in size
# In short: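 Viability was measured as metabolically active cells after 48 hours of treatment, read by CellTiter-Glo luminescence. Compounds were tested at multiple final concentrations, giving concentration-response curves.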
# Tags give direction and shape of the fitted curve.
smiles,measurement,setting,value
Cc1cc(Nc2cc(NC(=O)c3c(Cl)cccc3Cl)ccn2)nc(N)n1,Potency,[1],"inconclusive: 37.2 µM [inhibitor, partial curve]"
same,Potency,[2],active: 0.187 µM
same,Potency,[3],"inconclusive: 18.7 µM [cytotoxic, partial curve, poor fit]"
same,Potency,[4],"inconclusive: 37.2 µM [cytotoxic, single point]"
same,Potency,[5]; HiBiT,active: 2.79 µM
CC(=O)NC(C)c1ccc(Oc2ccc(OC(C)C)cc2)cc1 (centres undefined),Potency,[6],active: 13.2 µM
same,Potency,[7],"inconclusive: 16.6 µM [cytotoxic, partial curve]"
same,Potency,[2],"inconclusive: 1.48 µM [cytotoxic, partial curve, poor fit]"
same,Potency,[8],active: 13.2 µM
same,Potency,[9],inactive
same,Potency,[10],active: 16.6 µM
same,Potency,[4],"inconclusive: 18.7 µM [cytotoxic, partial curve]"
same,Potency,[11],"inconclusive: 14.8 µM [cytotoxic, partial curve]"
O=c1[nH]nc(Sc2ncc([N+](=O)[O-])s2)n1-c1ccc2c(c1)OCCO2,Potency,[6],active: 9.35 µM
same,Potency,[12],inactive
same,Potency,[3],active: 2.64 µM
same,Potency,[8],active: 4.69 µM
same,Potency,[4],active: 3.72 µM
same,Potency,[5]; Viability,"inconclusive: 8.83 µM [cytotoxic, full curve, poor fit]"
Cn1c(Nc2ccc(C(F)(F)F)cc2)nc2cc(Oc3ccnc(-c4ncc(C(F)(F)F)[nH]4)c3)ccc21,Potency,[7],"inconclusive: 18.7 µM [cytotoxic, partial curve]"
same,Potency,[2],active: 9.35 µM
same,Potency,[3],"inconclusive: 14.8 µM [cytotoxic, partial curve]"
same,Potency,[8],"inconclusive: 18.7 µM [cytotoxic, partial curve, poor fit]"
same,Potency,[11],"inconclusive: 23.5 µM [cytotoxic, partial curve]"
same,Potency,[5]; HiBiT,"inconclusive: 0.394 µM [inhibitor, full curve]"
same,Potency,[5]; Viability,"inconclusive: 0.351 µM [cytotoxic, full curve, poor fit]"
C[C@@H]1CN(CC(=O)Nc2ccc3c(c2)Cc2cccc(-c4cc(=O)cc(N5CCOCC5)o4)c2S3)C[C@H](C)O1,Potency,[6],active: 4.18 µM
same,Potency,[13],"inconclusive: 5.26 µM [cytotoxic, partial curve]"
same,Potency,[7],"inconclusive: 20.9 µM [cytotoxic, partial curve]"
same,Potency,[3],"inconclusive: 13.2 µM [cytotoxic, partial curve]"
same,Potency,[9],"inconclusive: 13.2 µM [cytotoxic, partial curve, poor fit]"
same,Potency,[10],active: 9.35 µM
same,Potency,[4],"inconclusive: 23.5 µM [cytotoxic, single point]"
same,Potency,[11],active: 16.6 µM
